The values that follow come from publication PMC10218303, “Novel Polymyxin-Inspired Peptidomimetics Targeting the SARS-CoV-2 Spike:hACE2 Interface” (International Journal of Molecular Sciences, 2023).

Several values for one entry are separate records, joined by “and”; a condition that tells them apart may be missing. Identical values can stand only once. Bridge positions count the residues as written; N and C are the ends. Square brackets hold non-standard residues; d marks the D form. Peptide text beside a SMILES is read from it. Dab = NCC[C@H](N)C(=O)O

In this test the target is RBD of the Wuhan-Hu-1 SARS-CoV-2 spike protein (Severe acute respiratory syndrome coronavirus 2, UniProt P0DTC2). The experiment in a line: biochemical. The note with it: for Kd: KD (dissociation equilibrium constant); for kon: pH 7.4, read-out: ka (association rate constant); for koff: pH 7.4, read-out: kd (dissociation rate constant).

Take `CC[C@H](C)[C@@H]1NC(=O)[C@@H](NC(=O)[C@H](CCN)NC(=O)[C@@H](NC(=O)[C@H](CC(C)C)NC(C)=O)[C@@H](C)O)CCNC(=O)[C@H](Cn2cc(CC(=O)N[C@@H](CCN)C(=O)N[C@H]3CCNC(=O)[C@H]([C@@H](C)O)NC(=O)[C@H](CCN)NC(=O)[C@H](Cc4c[nH]c5ccccc45)NC(=O)[C@H](CC(C)C)NC(=O)[C@@H](Cc4ccccc4)NC(=O)[C@H](Cc4ccc(O)cc4)NC3=O)nn2)NC(=O)[C@H](CCN)NC(=O)[C@H](CCN)NC(=O)[C@H](Cc2ccc(O)cc2)NC(=O)[C@@H](Cc2ccccc2)NC1=O` [dimer 3]: the “binding to the RBD in SPR, in words” value was “did not produce reliable data because of the aspecific interaction with the matrix of the chip”.
Same read-out and setting: the value for `CC[C@H](C)[C@@H]1NC(=O)[C@@H](NC(=O)[C@H](CCN)NC(=O)[C@@H](NC(=O)[C@H](CC(C)C)NC(C)=O)[C@@H](C)O)CCNC(=O)[C@H](Cn2cc(CCC(=O)N[C@@H](CCN)C(=O)N[C@H]3CCNC(=O)[C@H]([C@@H](C)O)NC(=O)[C@H](CCN)NC(=O)[C@H](Cc4c[nH]c5ccccc45)NC(=O)[C@H](CC(C)C)NC(=O)[C@@H](Cc4ccccc4)NC(=O)[C@H](Cc4ccc(O)cc4)NC3=O)nn2)NC(=O)[C@H](CCN)NC(=O)[C@H](CCN)NC(=O)[C@H](Cc2ccc(O)cc2)NC(=O)[C@@H](Cc2ccccc2)NC1=O` [dimer 4] was “did not produce reliable data because of the aspecific interaction with the matrix of the chip”.
In the case of `CC(=O)N[C@@H](CCC(=O)O)C(=O)N[C@H](C(=O)N[C@@H](CCN)C(=O)N[C@H]1CCNC(=O)[C@H](Cn2cc(CC(=O)N[C@@H](CC(C)C)C(=O)N[C@H]3CCNC(=O)[C@H]([C@@H](C)O)NC(=O)[C@H](CCN)NC(=O)[C@H](CCN)NC(=O)[C@H](CC(C)C)NC(=O)[C@@H](Cc4ccccc4)NC(=O)[C@H](Cc4c[nH]c5ccccc45)NC3=O)nn2)NC(=O)[C@H](CCN)NC(=O)[C@H](CCN)NC(=O)[C@H](Cc2ccc(O)cc2)NC(=O)[C@@H](Cc2ccccc2)NC(=O)[C@H](Cc2ccc(O)cc2)NC1=O)[C@@H](C)O` [dimer 7], the Kd is 2310 to 2780 nM and 2310 nM; the kon is 3090 ± 590 M⁻¹ s⁻¹; the koff was 0.00683 ± 0.00158 s⁻¹.
As to `CC(=O)N[C@@H](CCC(=O)O)C(=O)N[C@H](C(=O)N[C@@H](CCN)C(=O)N[C@H]1CCNC(=O)[C@H](Cn2cc(CC(=O)N[C@@H](CCN)C(=O)N[C@H]3CCNC(=O)[C@H]([C@@H](C)O)NC(=O)[C@H](CCN)NC(=O)[C@H](Cc4c[nH]c5ccccc45)NC(=O)[C@H](CC(C)C)NC(=O)[C@@H](Cc4ccccc4)NC(=O)[C@H](Cc4c[nH]c5ccccc45)NC3=O)nn2)NC(=O)[C@H](CCN)NC(=O)[C@H](CCN)NC(=O)[C@H](CC(C)C)NC(=O)[C@@H](Cc2ccccc2)NC(=O)[C@H](Cc2ccc(O)cc2)NC1=O)[C@@H](C)O` [dimer 10], the Kd is 2310 to 2780 nM and 2780 nM; the kon came to 2650 ± 670 M⁻¹ s⁻¹; the koff was 0.007 ± 0.0011 s⁻¹.
`CC(C)C[C@@H]1NC(=O)[C@@H](Cc2ccccc2)NC(=O)[C@H](Cc2ccc(O)cc2)NC(=O)[C@@H](NC(=O)[C@@H](N)CCN)CCNC(=O)[C@H]([C@@H](C)O)NC(=O)[C@H](CCN)NC(=O)[C@H](Cc2c[nH]c3ccccc23)NC1=O` [monomer 1] (H-[Dab][Dab]Y[dF]LW[Dab]T; lactam 2-C): binding was characterised by a dissociation constant (Kd) of 10100 ± 2090 nM, the kon came out at 610 ± 50 M⁻¹ s⁻¹ and the koff was 0.00612 ± 0.00079 s⁻¹.
For `CC[C@H](C)[C@@H]1NC(=O)[C@@H](NC(=O)[C@H](CCN)NC(=O)[C@@H](NC(=O)[C@H](CC(C)C)NC(C)=O)[C@@H](C)O)CCNC(=O)[C@H](Cn2cc(CC(=O)O)nn2)NC(=O)[C@H](CCN)NC(=O)[C@H](CCN)NC(=O)[C@H](Cc2ccc(O)cc2)NC(=O)[C@@H](Cc2ccccc2)NC1=O` [monomer 2] the same measures were 9620 ± 1250 nM, 460 ± 20 M⁻¹ s⁻¹ and 0.00439 ± 0.00039 s⁻¹.
For `CC(C)C[C@@H]1NC(=O)[C@@H](Cc2ccccc2)NC(=O)[C@H](Cc2c[nH]c3ccccc23)NC(=O)[C@@H](NC(=O)[C@@H](N)CC(C)C)CCNC(=O)[C@H]([C@@H](C)O)NC(=O)[C@H](CCN)NC(=O)[C@H](CCN)NC1=O` [monomer 5] (H-L[Dab]W[dF]L[Dab][Dab]T; lactam 2-C), the “binding to the RBD in SPR, in words” value is recorded as “detectable yet returning binding”.
As for `CC(=O)N[C@@H](CCC(=O)O)C(=O)N[C@H](C(=O)N[C@@H](CCN)C(=O)N[C@H]1CCNC(=O)[C@H](Cn2cc(CC(=O)O)nn2)NC(=O)[C@H](CCN)NC(=O)[C@H](CCN)NC(=O)[C@H](Cc2ccc(O)cc2)NC(=O)[C@@H](Cc2ccccc2)NC(=O)[C@H](Cc2ccc(O)cc2)NC1=O)[C@@H](C)O` [monomer 6], the “binding to the RBD in SPR, in words” value is listed as “detectable yet returning binding”.
Regarding `CC(C)C[C@@H]1NC(=O)[C@@H](Cc2ccccc2)NC(=O)[C@H](Cc2c[nH]c3ccccc23)NC(=O)[C@@H](NC(=O)[C@@H](N)CCN)CCNC(=O)[C@H]([C@@H](C)O)NC(=O)[C@H](CCN)NC(=O)[C@H](Cc2c[nH]c3ccccc23)NC1=O` [monomer 8] (H-[Dab][Dab]W[dF]LW[Dab]T; lactam 2-C), the Kd came out at 8560 ± 4160 nM, the kon is 1200 ± 410 M⁻¹ s⁻¹ and the koff was found to be 0.00943 ± 0.00152 s⁻¹.
In the case of `CC(=O)N[C@@H](CCC(=O)O)C(=O)N[C@H](C(=O)N[C@@H](CCN)C(=O)N[C@H]1CCNC(=O)[C@H](Cn2cc(CC(=O)O)nn2)NC(=O)[C@H](CCN)NC(=O)[C@H](CCN)NC(=O)[C@H](CC(C)C)NC(=O)[C@@H](Cc2ccccc2)NC(=O)[C@H](Cc2ccc(O)cc2)NC1=O)[C@@H](C)O` [monomer 9], the “binding to the RBD in SPR, in words” value is “devoid of any meaningful RBD binding”.

The Kd is the equilibrium constant for the complex coming apart. A low value points to higher affinity.
